Test results reported in the supplement of paper PMC10126150.
Values marked as one replicate rest on one cluster of the flow cell; about a third of the high ones do not repeat.

Tested on: ATP
Assay: switch fluorescence ratio, 500 uM ATP over buffer (Cy3 cluster intensity, sum of 5 cycles each) (fold (ratio)); higher = stronger signal-on switching upon ATP binding; sequences stand for … in TCGTCGGCAGCGTCAGATGTGTATAAGAGACAGTTTTTTTTTTTTTTTTTTTTTTTTT…TC
Conditions: aptamer strand: ATP DNA aptamer (quencher-CACCTGGGGGAGTATTGCGGAGGAAGG + anchor), 100 nM annealed; ATP concentration: 500 uM; one replicate
Summary of the method: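 The quencher-labelled ATP aptamer, at 100 nM, was annealed to Cy3-labelled switching-strand clusters on a modified Illumina MiSeq flow-cell. The clusters were imaged in selection buffer, then after 15 min with 500 uM ATP at 22 °C, and this buffer/ATP cycle ran five times with NaOH stripping and re-annealing between runs. Per-cluster fluorescence ratios, summed target-cycle over summed buffer-cycle Cy3 intensity, were averaged per switch-domain sequence. Clusters outside 100-1000 RFU were excluded.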
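Also: ATP exposure 15 min at 22 °C before imaging.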

In the case of TCCAGTA, the switch fluorescence ratio is reported as 0.982.
In the case of ATGGTCTATG, the switch fluorescence ratio is reported as 0.969.
With ATCCGGGGCG the switch fluorescence ratio was 1.01.
CTTCGCGTCT showed a switch fluorescence ratio of 1.03.
With AGAGATTTTG the switch fluorescence ratio was 1.05.
For GTTCGGTGTT, the switch fluorescence ratio was 1.03.
For CATACTGCAC, the switch fluorescence ratio was 1.71.
For AAATCGTCG, the switch fluorescence ratio was 0.957.
GTTGTAGTGG showed a switch fluorescence ratio of 1.
With GGACCAGGCA the switch fluorescence ratio was 0.977.
For GGAGGGAAG, the switch fluorescence ratio was 0.991.
TGTTGCGGTG gave a switch fluorescence ratio of 0.962.
TTTGCGACCG gave a switch fluorescence ratio of 1.01.
In the case of ACAGTTTCGA, the switch fluorescence ratio is reported as 1.01.
CGGTAAGGTT gave a switch fluorescence ratio of 1.16.
With CAAGAGACGA the switch fluorescence ratio was 1.06.
With TATTGGTACG the switch fluorescence ratio was 1.01.
With TAAGCTAGAT the switch fluorescence ratio was 1.01.
Sequence CGGGTGCAAC has a switch fluorescence ratio of 0.993.
In the case of ACGAAAAACC, the switch fluorescence ratio is reported as 1.02.
AGACTGTTTT showed a switch fluorescence ratio of 0.983.
In the case of TCAGAGACTG, the switch fluorescence ratio is reported as 1.03.
GGGCGAACCG was tested, and the switch fluorescence ratio was 1.
GTCAATAGGT showed a switch fluorescence ratio of 1.
In the case of TTGAGTAGTA, the switch fluorescence ratio is reported as 0.973.
GCTAGTATGG was tested, and the switch fluorescence ratio was 0.969.
With GATATTTATT the switch fluorescence ratio was 1.02.
In the case of TAGAGGACGC, the switch fluorescence ratio is reported as 1.04.
TGCGACTAAA showed a switch fluorescence ratio of 1.06.
With ACGTGTGCAG the switch fluorescence ratio was 1.16.
For CTCTCAAACT, the switch fluorescence ratio was 1.13.
In the case of TAGATTCGCC, the switch fluorescence ratio is reported as 0.98.
TTAAAGCTTG showed a switch fluorescence ratio of 0.99.
Sequence CGGGTCAACC has a switch fluorescence ratio of 1.03.
Sequence GGAGGTCCTG has a switch fluorescence ratio of 0.981.
Work on AGGGACATTT yielded a switch fluorescence ratio of 0.975.
In the case of GCACGAAGAT, the switch fluorescence ratio is reported as 1.03.
For CACTGGTGGT, the switch fluorescence ratio was 1.
Sequence CATGGATGAG has a switch fluorescence ratio of 0.934.
Work on TAAGAGGGA yielded a switch fluorescence ratio of 0.97.
For AGAAGATTAA, the switch fluorescence ratio was 0.995.
For AGGACTATGT, the switch fluorescence ratio was 0.921.
Work on AGGATGCTTG yielded a switch fluorescence ratio of 0.958.
Work on CGTTCCTGTG yielded a switch fluorescence ratio of 1.08.
Work on CATAACAGTG yielded a switch fluorescence ratio of 1.
GCTCTGTCGA gave a switch fluorescence ratio of 1.23.
TATTAATACG gave a switch fluorescence ratio of 1.01.
In the case of AAACGGGTAA, the switch fluorescence ratio is reported as 0.979.
For ATACTGATCA, the switch fluorescence ratio was 1.03.
Sequence CACTCTAATT has a switch fluorescence ratio of 1.04.
Sequence TTAGATTTCA has a switch fluorescence ratio of 1.03.
In the case of GAGTTGCTA, the switch fluorescence ratio is reported as 1.05.
CGTACTTCAT gave a switch fluorescence ratio of 1.01.
For CGGGAACACG, the switch fluorescence ratio was 0.999.
With AAGCGTGAAA the switch fluorescence ratio was 1.06.
For TTGCTGACGG, the switch fluorescence ratio was 1.03.
For AAGTGTACCA, the switch fluorescence ratio was 1.04.
AAACAAAGA was tested, and the switch fluorescence ratio was 0.956.
Work on TCTTCTTGGA yielded a switch fluorescence ratio of 1.01.
TCCTGTGTGA showed a switch fluorescence ratio of 1.06.
Sequence CAATAGGGG has a switch fluorescence ratio of 0.956.
In the case of TCATTTTTAA, the switch fluorescence ratio is reported as 1.03.
In the case of AGGCCCAGGG, the switch fluorescence ratio is reported as 1.04.
Work on GCAGCCGTTC yielded a switch fluorescence ratio of 1.04.
TCTGTTTACC showed a switch fluorescence ratio of 1.
Sequence TACTCGGAGG has a switch fluorescence ratio of 1.02.
With GATGAAGATA the switch fluorescence ratio was 1.03.
CGAGCCCAGA was tested, and the switch fluorescence ratio was 1.49.
Sequence TGGGAAGTTA has a switch fluorescence ratio of 1.02.
With AAAAGTCTGG the switch fluorescence ratio was 0.932.
CGTTGTATTT showed a switch fluorescence ratio of 0.983.
TGTGAATAAT was tested, and the switch fluorescence ratio was 0.978.
In the case of GAGTCACCGG, the switch fluorescence ratio is reported as 0.975.
Sequence TCCATTATTC has a switch fluorescence ratio of 1.01.
TCCTTCCTAG was tested, and the switch fluorescence ratio was 2.01.
Work on GGTTGGAGCA yielded a switch fluorescence ratio of 1.02.
In the case of TATTCGGTAC, the switch fluorescence ratio is reported as 1.17.
Sequence GAGTTACCGA has a switch fluorescence ratio of 1.03.
Sequence CTATGTTCAT has a switch fluorescence ratio of 1.
For GGGAGCAGGC, the switch fluorescence ratio was 1.09.
With GTCTTTCACG the switch fluorescence ratio was 0.976.
With TCGTTGCGTA the switch fluorescence ratio was 0.962.
In the case of CCGCAAGGGA, the switch fluorescence ratio is reported as 2.01.
With TCAAGGTGGT the switch fluorescence ratio was 1.03.
CGTATAAGAA was tested, and the switch fluorescence ratio was 1.01.
Work on ATAGAATCGT yielded a switch fluorescence ratio of 0.974.
GCGTGCCGCT was tested, and the switch fluorescence ratio was 0.99.
Work on AGGTTTCGTA yielded a switch fluorescence ratio of 0.983.
For TGAGAAAGAA, the switch fluorescence ratio was 0.995.
Sequence TATTCCAGAG has a switch fluorescence ratio of 1.06.
CACTCATCG showed a switch fluorescence ratio of 1.03.
For ACAAGATTGT, the switch fluorescence ratio was 1.03.
Sequence CCGATTTCGG has a switch fluorescence ratio of 1.01.
AACATTGACG gave a switch fluorescence ratio of 1.21.
For CTGGAGGAAG, the switch fluorescence ratio was 1.02.
With AGAACGGCTG the switch fluorescence ratio was 1.02.
Work on TGCCACTGAG yielded a switch fluorescence ratio of 1.11.
TGAGGGTATA was tested, and the switch fluorescence ratio was 1.05.
In the case of TTCAAGAGCA, the switch fluorescence ratio is reported as 1.04.
For GTGCCCTTCT, the switch fluorescence ratio was 1.01.
With CTTTAAAATC the switch fluorescence ratio was 0.992.
TTCAAAATT showed a switch fluorescence ratio of 0.99.
AGAACGGCGA gave a switch fluorescence ratio of 0.982.
In the case of GGCTAGGTTT, the switch fluorescence ratio is reported as 0.992.
For TTTCGGGATA, the switch fluorescence ratio was 1.05.
GTAGTAAGCA was tested, and the switch fluorescence ratio was 1.03.
In the case of CGCTCTTGCC, the switch fluorescence ratio is reported as 1.
ACATAGCTCG gave a switch fluorescence ratio of 1.01.
Work on GTGGGGTAAT yielded a switch fluorescence ratio of 0.953.
Sequence AGATGAGTAG has a switch fluorescence ratio of 0.988.
GGCAGTGGGA showed a switch fluorescence ratio of 1.03.
CCAACCTTTG showed a switch fluorescence ratio of 1.09.
GAAACGAGG showed a switch fluorescence ratio of 0.975.
With ACTGCCGCTG the switch fluorescence ratio was 1.23.
Work on ATTTTCATTC yielded a switch fluorescence ratio of 1.03.
ATGTATAGTG was tested, and the switch fluorescence ratio was 0.965.
Work on TTCGGCCTGG yielded a switch fluorescence ratio of 0.987.
In the case of GGCGGCCGTC, the switch fluorescence ratio is reported as 0.977.
Sequence AGGGGGACAT has a switch fluorescence ratio of 1.16.
With ATTGTTGTCA the switch fluorescence ratio was 0.984.
TAAGCCCCTG was tested, and the switch fluorescence ratio was 0.99.
In the case of CGGAAAGTAG, the switch fluorescence ratio is reported as 1.04.
TGCTCGCACT gave a switch fluorescence ratio of 1.11.
In the case of AATTAGGGTC, the switch fluorescence ratio is reported as 1.01.
Work on GCATGAAGAC yielded a switch fluorescence ratio of 1.08.
CATAGTCTTC was tested, and the switch fluorescence ratio was 1.03.
For ACCATTGTAT, the switch fluorescence ratio was 1.02.
In the case of CGCGGATACT, the switch fluorescence ratio is reported as 5.32.
For GGCGCGGCAC, the switch fluorescence ratio was 1.01.
Sequence GGTAACTAGT has a switch fluorescence ratio of 1.
Work on CGTCGAATGT yielded a switch fluorescence ratio of 0.995.
In the case of TATTCGAGT, the switch fluorescence ratio is reported as 0.978.
With CGAGGCGAAT the switch fluorescence ratio was 1.45.
With TCATGTGGGG the switch fluorescence ratio was 0.997.
For AAGTCACCCC, the switch fluorescence ratio was 1.19.
AGTTGTAAGT showed a switch fluorescence ratio of 0.99.
For TACAGGGATA, the switch fluorescence ratio was 0.99.
Sequence ACAAGAGTCA has a switch fluorescence ratio of 0.999.
CGGTTCTTAC was tested, and the switch fluorescence ratio was 1.07.
GTGTTTCATG showed a switch fluorescence ratio of 1.02.
Work on ATAGTTATGA yielded a switch fluorescence ratio of 1.04.
TGGAAAACAT showed a switch fluorescence ratio of 0.988.
Sequence TCGTGTAGAT has a switch fluorescence ratio of 1.09.
With TCGACTCT the switch fluorescence ratio was 1.03.
Sequence CGGCAGAGTG has a switch fluorescence ratio of 1.01.
CTTGATGCTT was tested, and the switch fluorescence ratio was 0.989.
TGGGTACCGC showed a switch fluorescence ratio of 0.99.
TATTGACGG was tested, and the switch fluorescence ratio was 1.04.
ATGGGCCTAA gave a switch fluorescence ratio of 0.955.
CTACGTTTTT showed a switch fluorescence ratio of 2.97.
AAATAGAAGT showed a switch fluorescence ratio of 0.958.
Sequence CCGTATGCCC has a switch fluorescence ratio of 1.02.
Sequence TGTAGTCAAA has a switch fluorescence ratio of 0.95.
For ATACTCTTTT, the switch fluorescence ratio was 0.993.
For TATATTGCGG, the switch fluorescence ratio was 1.02.
In the case of TCCAGAATCG, the switch fluorescence ratio is reported as 0.965.
For GTTAGAATTG, the switch fluorescence ratio was 0.97.
